No end group written: not given here.
T1: human C-loop peptide antigen (β3 cysteine loop peptide) (human, cysteine pairing not given here; also: coated as C-loop peptide conjugate, carrier not given here)
T1 construct: also called human peptide antigen; C-loop antigen peptide
T1 peptide: CYDMKTTC

T2: rat β3 expressed in CHO-K1 cells (rat, UniProt Q8R2H2 26-787)
T2 construct: whole, on cells; Only the β3 subunit was transfected; also called RAβ3; rat integrin β3
T2 sequence (looked up): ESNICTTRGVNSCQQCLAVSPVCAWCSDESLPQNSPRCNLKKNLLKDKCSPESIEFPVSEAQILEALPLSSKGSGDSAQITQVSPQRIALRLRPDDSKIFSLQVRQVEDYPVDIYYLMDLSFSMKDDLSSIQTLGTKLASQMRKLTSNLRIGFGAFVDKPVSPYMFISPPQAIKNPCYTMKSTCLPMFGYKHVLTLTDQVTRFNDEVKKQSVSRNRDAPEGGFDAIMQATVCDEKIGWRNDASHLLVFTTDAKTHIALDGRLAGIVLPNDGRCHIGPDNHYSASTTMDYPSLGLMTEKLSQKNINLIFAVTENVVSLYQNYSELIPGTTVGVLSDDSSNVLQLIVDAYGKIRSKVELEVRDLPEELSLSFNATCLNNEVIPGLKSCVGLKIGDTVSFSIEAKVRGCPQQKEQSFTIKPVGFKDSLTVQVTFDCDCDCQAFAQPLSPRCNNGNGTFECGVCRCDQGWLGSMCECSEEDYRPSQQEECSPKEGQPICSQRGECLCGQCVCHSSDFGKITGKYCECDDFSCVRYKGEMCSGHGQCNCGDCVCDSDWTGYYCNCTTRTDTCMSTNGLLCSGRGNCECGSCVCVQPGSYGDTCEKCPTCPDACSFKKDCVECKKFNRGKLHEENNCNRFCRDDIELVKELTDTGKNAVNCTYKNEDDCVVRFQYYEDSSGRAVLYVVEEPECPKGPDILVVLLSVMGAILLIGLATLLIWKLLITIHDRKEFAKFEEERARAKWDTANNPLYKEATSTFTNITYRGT

T3: monkey β3 expressed in CHO-K1 cells (monkey (Callithrix jacchus), UniProt U3B9A7 27-788)
T3 construct: whole, on cells; Only the β3 subunit was transfected; also called MOβ3; monkey integrin β3
T3 sequence: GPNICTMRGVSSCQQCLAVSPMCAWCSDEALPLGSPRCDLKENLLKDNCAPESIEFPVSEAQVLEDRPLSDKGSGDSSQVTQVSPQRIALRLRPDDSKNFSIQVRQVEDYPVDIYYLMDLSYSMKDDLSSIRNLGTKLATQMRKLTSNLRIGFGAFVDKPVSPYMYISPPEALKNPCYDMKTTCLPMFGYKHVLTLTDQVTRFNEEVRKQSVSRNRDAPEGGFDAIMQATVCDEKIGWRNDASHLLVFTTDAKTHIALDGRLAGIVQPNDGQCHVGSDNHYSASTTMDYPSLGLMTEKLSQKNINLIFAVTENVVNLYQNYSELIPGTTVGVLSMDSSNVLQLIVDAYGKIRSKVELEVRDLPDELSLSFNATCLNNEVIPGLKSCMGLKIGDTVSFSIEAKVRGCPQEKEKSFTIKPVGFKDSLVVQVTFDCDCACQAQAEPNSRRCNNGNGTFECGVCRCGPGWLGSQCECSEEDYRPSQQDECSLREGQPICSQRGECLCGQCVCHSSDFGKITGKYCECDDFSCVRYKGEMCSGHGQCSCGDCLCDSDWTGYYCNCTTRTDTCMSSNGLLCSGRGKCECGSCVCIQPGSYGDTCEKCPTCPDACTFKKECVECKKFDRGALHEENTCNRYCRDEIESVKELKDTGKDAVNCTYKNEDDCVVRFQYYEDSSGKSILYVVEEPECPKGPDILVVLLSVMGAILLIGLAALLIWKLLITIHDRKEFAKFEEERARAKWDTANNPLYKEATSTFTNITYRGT


Columns and labels:
[1] = molecular target: T4, alphaVbeta3 integrin, native human, on rhabdomyosarcoma (RD) cells and on human umbilical vein endothelial … (human, UniProt P06756 31-1048; P05106 27-788); assay: flow cytometry on RD cells expressing alphaVbeta3, PE anti-human IgG; EC50 = concentration where 50% of cells gated in R2
T4 construct: whole, on cells; also called αVβ3; native human β3

[2] = molecular target: T1, human C-loop peptide antigen (β3 …); assay: ELISA on plate-coated C-loop peptide conjugate, four-parameter fit; mean ± SD, n = 3
[3] = molecular target: T4, alphaVbeta3 integrin, native human, on …; assay: flow cytometry on RD cells expressing alphaVbeta3; reference chimeric HLMC
[4] = molecular target: T4, alphaVbeta3 integrin, native human, on …; assay: flow cytometry on human rhabdomyosarcoma cells
[5] = molecular target: T4, alphaVbeta3 integrin, native human, on …; assay: cell based ELISA on HUVEC cultured in high glucose (25 mM/L); mean ± SEM, N = 6
[6] = molecular target: T5, human β3 expressed in CHO-K1 cells (CHO-Huβ3) (human, UniProt P05106 27-788); assay: cell based ELISA on CHO-K1 cells expressing human β3; mean ± SEM, N = 3 assays
T5 construct: whole, on cells; Only the β3 subunit was transfected; also called CHO-Hub3; CHO-K1 - Huβ3

[7] = molecular target: T4, alphaVbeta3 integrin, native human, on …; assay: cell based ELISA on HUVEC cultured in normal glucose (5 mM/L); mean ± SEM, N = 4
[8] = molecular target: T2, rat β3 expressed in CHO-K1 cells; assay: cell based ELISA on CHO cells expressing rat β3; mean ± SEM, N = 3
[9] = molecular target: T3, monkey β3 expressed in CHO-K1 cells; assay: cell based ELISA on CHO cells expressing monkey β3; mean ± SEM, N = 3
[10] = molecular target: T1, human C-loop peptide antigen (β3 …); assay: ELISA on plate-coated human C-loop peptide conjugate

T4 sequence (P06756 31-1048): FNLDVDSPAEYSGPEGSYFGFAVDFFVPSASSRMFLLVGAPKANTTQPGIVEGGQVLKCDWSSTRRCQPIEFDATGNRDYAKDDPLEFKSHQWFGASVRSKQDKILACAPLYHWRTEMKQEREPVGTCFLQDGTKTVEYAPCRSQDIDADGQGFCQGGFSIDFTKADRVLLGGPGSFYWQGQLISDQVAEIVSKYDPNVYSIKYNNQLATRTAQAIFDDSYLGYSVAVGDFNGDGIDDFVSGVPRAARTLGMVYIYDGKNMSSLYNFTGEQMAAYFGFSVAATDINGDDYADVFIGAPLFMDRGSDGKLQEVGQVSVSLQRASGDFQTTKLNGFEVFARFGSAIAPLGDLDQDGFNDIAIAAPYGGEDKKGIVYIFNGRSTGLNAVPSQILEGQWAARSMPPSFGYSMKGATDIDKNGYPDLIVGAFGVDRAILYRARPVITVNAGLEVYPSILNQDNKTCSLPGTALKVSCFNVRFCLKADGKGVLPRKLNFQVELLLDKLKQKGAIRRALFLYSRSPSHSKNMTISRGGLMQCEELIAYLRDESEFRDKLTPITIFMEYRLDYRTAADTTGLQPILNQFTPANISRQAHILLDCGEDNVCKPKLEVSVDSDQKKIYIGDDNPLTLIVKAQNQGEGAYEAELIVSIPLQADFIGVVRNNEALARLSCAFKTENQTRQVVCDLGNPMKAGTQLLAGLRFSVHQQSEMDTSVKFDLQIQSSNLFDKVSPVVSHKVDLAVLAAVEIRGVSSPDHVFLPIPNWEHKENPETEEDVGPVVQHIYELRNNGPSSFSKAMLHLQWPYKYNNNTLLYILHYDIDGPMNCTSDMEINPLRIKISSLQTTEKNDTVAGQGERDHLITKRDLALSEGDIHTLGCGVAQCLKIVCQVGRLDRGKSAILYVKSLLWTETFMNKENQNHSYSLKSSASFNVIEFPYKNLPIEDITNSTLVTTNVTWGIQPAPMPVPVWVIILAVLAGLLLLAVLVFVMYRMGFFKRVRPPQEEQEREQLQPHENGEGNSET

EC50 [1] [nM] | Kd [2] [nM] | relative binding score (EC50 of variant divided by EC50 of chimeric HLMC) [3] [ratio] | EC50 [4] [nM] | EC50 [5] [nM] | EC50 [6] [nM] | EC50 [7] [nM] | EC50 [8] [nM] | EC50 [9] [nM] | fold increase in affinity against the parent murine monoclonal [10] [fold] | Binder
3.43 | 0.21 | 0.96 | 18 | – | – | – | – | – | – | VH5/Vκ2 Composite Human Antibody variant of HLMC (antibody, human IgG1, kappa, also called VH5VK2; Vh5/Vk2) heavy: QAQLVQSGAEVKKPGASVKVSCKASGYLFSNSWMNWVKQRRGAGLEWIGRIFPGDGDTNYNGKFKGRVTITADKSTSTAYMELSSLRSEDTAVYYCARWGLTRDRRLYLDYWGQGTTVTVSS[human IgG1 constant region omitted here] light: DIVMTQSPDSLAVSLGERATINCKSSQSLLYSSNQKNYLAWYQQKPGQAPRLLIYWASTRESGVPDRFTGSGSGTDFTLTISSLQAEDVAVYYCKQYYTYPLTFGQGTKLEIKRTVAAPSVFIFPPSDEQLKSGTASVVCLLNNFYPREAKVQWKVDNALQSGNSQESVTEQDSKDSTYSLSSTLTLSKADYEKHKVYACEVTHQGLSSPVTKSFNRGEC
– | 0.28 | – | – | 32.9 | 20.3 | 11.8 | 12.9 | 22.5 | ~5 | VPI-2690B (antibody, human IgG1, kappa, also called VH6/Vκ2; optimized humanized monoclonal IgG1) heavy: QVQLVQSGAEVKKPGASVKVSCKASGYLFSNSWMNWVKQRRGAGLEWIGRIFPGDGDTNYNGKFKGRVTITADKSTSTAYMELSSLRSEDTAVYYCARWGLTRDRRLYLDYWGQGTTVTVSS[human IgG1 constant region omitted here] light: DIVMTQSPDSLAVSLGERATINCKSSQSLLYSSNQKNYLAWYQQKPGQAPRLLIYWASTRESGVPDRFTGSGSGTDFTLTISSLQAEDVAVYYCKQYYTYPLTFGQGTKLEIKRTVAAPSVFIFPPSDEQLKSGTASVVCLLNNFYPREAKVQWKVDNALQSGNSQESVTEQDSKDSTYSLSSTLTLSKADYEKHKVYACEVTHQGLSSPVTKSFNRGEC
